Test results reported in patent publication US9234216B2, “Variant CBH I polypeptides” (BP Corporation North America Inc., priority 2011, dated 2016).

Test: Saccharification of pretreated bagasse by CBHI variants in a cocktail with CBHII and EG
Format: biochemical
Settings: for % improvement over WT @ 48 hr: 5% w/v pretreated bagasse, 35° C., pH5.2, CBHI 4 mg/g cellulose; for Dose Reduction: method not described
[1] = Table 2, (% conversion of variant − % conversion of wt)/% conversion of wt

Molecule | % improvement over WT @ 48 hr [1] | Dose Reduction (Table 2) | % improvement over WT @ 48 hr (Table 6)
SEQ ID NO: 55, 56: BD29555 CBH I variant: N455G (protein) MSALNSFNMYKSALILGSLLATAGAQQIGTYTAETHPSLSWSTCKSGGSCTTNSGAITLDANWRWVHGVNTSTNCYTGNTWNTAICDTDASCAQDCALDGADYSGTYGITTSGNSLRLNFVTGSNVGSRTYLMADNTHYQIFDLLNQEFTFTVDVSHLPCGLNGALYFVTMDADGGVSKYPNNKAGAQYGVGYCDSQCPRDLKFIAGQANVEGWTPSSNNANTGLGNHGACCAELDIWEANSISEALTPHPCDTPGLSVCTTDACGGTYSSDRYAGTCDPDGCDFNPYRLGVTDFYGSGKTVDTTKPITVVTQFVTDDGTSTGTLSEIRRYYVQNGVVIPQPSSKISGVSGNVINSDFCDAEISTFGETASFSKHGGLAKMGAGMEAGMVLVMSLWDDYSVNMLWLDSTYPTNATGTPGAARGSCPTTSGDPKTVESQSGSSYVTFSDIRVGPFGSTFSGGSSTGGSSTTTASGTTTTKASSTSTSSTSTGTGVAAHWGQCGGQGWTGPTTCASGTTCTVVNPYYSQCL | 0.8% | 1X | 
SEQ ID NO: 57, 58: BD29555 CBH I variant: S463K (protein) MSALNSFNMYKSALILGSLLATAGAQQIGTYTAETHPSLSWSTCKSGGSCTTNSGAITLDANWRWVHGVNTSTNCYTGNTWNTAICDTDASCAQDCALDGADYSGTYGITTSGNSLRLNFVTGSNVGSRTYLMADNTHYQIFDLLNQEFTFTVDVSHLPCGLNGALYFVTMDADGGVSKYPNNKAGAQYGVGYCDSQCPRDLKFIAGQANVEGWTPSSNNANTGLGNHGACCAELDIWEANSISEALTPHPCDTPGLSVCTTDACGGTYSSDRYAGTCDPDGCDFNPYRLGVTDFYGSGKTVDTTKPITVVTQFVTDDGTSTGTLSEIRRYYVQNGVVIPQPSSKISGVSGNVINSDFCDAEISTFGETASFSKHGGLAKMGAGMEAGMVLVMSLWDDYSVNMLWLDSTYPTNATGTPGAARGSCPTTSGDPKTVESQSGSSYVTFSDIRVGPFNSTFSGGSKTGGSSTTTASGTTTTKASSTSTSSTSTGTGVAAHWGQCGGQGWTGPTTCASGTTCTVVNPYYSQCL | 1.1% |  | 
SEQ ID NO: 1, 2: BD29555 CBH I variant: N222H (protein) MSALNSFNMYKSALILGSLLATAGAQQIGTYTAETHPSLSWSTCKSGGSCTTNSGAITLDANWRWVHGVNTSTNCYTGNTWNTAICDTDASCAQDCALDGADYSGTYGITTSGNSLRLNFVTGSNVGSRTYLMADNTHYQIFDLLNQEFTFTVDVSHLPCGLNGALYFVTMDADGGVSKYPNNKAGAQYGVGYCDSQCPRDLKFIAGQANVEGWTPSSNNAHTGLGNHGACCAELDIWEANSISEALTPHPCDTPGLSVCTTDACGGTYSSDRYAGTCDPDGCDFNPYRLGVTDFYGSGKTVDTTKPITVVTQFVTDDGTSTGTLSEIRRYYVQNGVVIPQPSSKISGVSGNVINSDFCDAEISTFGETASFSKHGGLAKMGAGMEAGMVLVMSLWDDYSVNMLWLDSTYPTNATGTPGAARGSCPTTSGDPKTVESQSGSSYVTFSDIRVGPFNSTFSGGSSTGGSSTTTASGTTTTKASSTSTSSTSTGTGVAAHWGQCGGQGWTGPTTCASGTTCTVVNPYYSQCL | 12.3% |  | 
SEQ ID NO: 3, 4: BD29555 CBH I variant: N222E (protein) MSALNSFNMYKSALILGSLLATAGAQQIGTYTAETHPSLSWSTCKSGGSCTTNSGAITLDANWRWVHGVNTSTNCYTGNTWNTAICDTDASCAQDCALDGADYSGTYGITTSGNSLRLNFVTGSNVGSRTYLMADNTHYQIFDLLNQEFTFTVDVSHLPCGLNGALYFVTMDADGGVSKYPNNKAGAQYGVGYCDSQCPRDLKFIAGQANVEGWTPSSNNAETGLGNHGACCAELDIWEANSISEALTPHPCDTPGLSVCTTDACGGTYSSDRYAGTCDPDGCDFNPYRLGVTDFYGSGKTVDTTKPITVVTQFVTDDGTSTGTLSEIRRYYVQNGVVIPQPSSKISGVSGNVINSDFCDAEISTFGETASFSKHGGLAKMGAGMEAGMVLVMSLWDDYSVNMLWLDSTYPTNATGTPGAARGSCPTTSGDPKTVESQSGSSYVTFSDIRVGPFNSTFSGGSSTGGSSTTTASGTTTTKASSTSTSSTSTGTGVAAHWGQCGGQGWTGPTTCASGTTCTVVNPYYSQCL | 7.2% |  | 
SEQ ID NO: 5, 6: BD29555 CBH I variant: S217K (protein) MSALNSFNMYKSALILGSLLATAGAQQIGTYTAETHPSLSWSTCKSGGSCTTNSGAITLDANWRWVHGVNTSTNCYTGNTWNTAICDTDASCAQDCALDGADYSGTYGITTSGNSLRLNFVTGSNVGSRTYLMADNTHYQIFDLLNQEFTFTVDVSHLPCGLNGALYFVTMDADGGVSKYPNNKAGAQYGVGYCDSQCPRDLKFIAGQANVEGWTPKSNNANTGLGNHGACCAELDIWEANSISEALTPHPCDTPGLSVCTTDACGGTYSSDRYAGTCDPDGCDFNPYRLGVTDFYGSGKTVDTTKPITVVTQFVTDDGTSTGTLSEIRRYYVQNGVVIPQPSSKISGVSGNVINSDFCDAEISTFGETASFSKHGGLAKMGAGMEAGMVLVMSLWDDYSVNMLWLDSTYPTNATGTPGAARGSCPTTSGDPKTVESQSGSSYVTFSDIRVGPFNSTFSGGSSTGGSSTTTASGTTTTKASSTSTSSTSTGTGVAAHWGQCGGQGWTGPTTCASGTTCTVVNPYYSQCL | 13.0% |  | 
SEQ ID NO: 7, 8: BD29555 CBH I variant: L225Y (protein) MSALNSFNMYKSALILGSLLATAGAQQIGTYTAETHPSLSWSTCKSGGSCTTNSGAITLDANWRWVHGVNTSTNCYTGNTWNTAICDTDASCAQDCALDGADYSGTYGITTSGNSLRLNFVTGSNVGSRTYLMADNTHYQIFDLLNQEFTFTVDVSHLPCGLNGALYFVTMDADGGVSKYPNNKAGAQYGVGYCDSQCPRDLKFIAGQANVEGWTPSSNNANTGYGNHGACCAELDIWEANSISEALTPHPCDTPGLSVCTTDACGGTYSSDRYAGTCDPDGCDFNPYRLGVTDFYGSGKTVDTTKPITVVTQFVTDDGTSTGTLSEIRRYYVQNGVVIPQPSSKISGVSGNVINSDFCDAEISTFGETASFSKHGGLAKMGAGMEAGMVLVMSLWDDYSVNMLWLDSTYPTNATGTPGAARGSCPTTSGDPKTVESQSGSSYVTFSDIRVGPFNSTFSGGSSTGGSSTTTASGTTTTKASSTSTSSTSTGTGVAAHWGQCGGQGWTGPTTCASGTTCTVVNPYYSQCL | 11.4% | 0.75X | 
SEQ ID NO: 9, 10: BD29555 CBH I variant: L225V (protein) MSALNSFNMYKSALILGSLLATAGAQQIGTYTAETHPSLSWSTCKSGGSCTTNSGAITLDANWRWVHGVNTSTNCYTGNTWNTAICDTDASCAQDCALDGADYSGTYGITTSGNSLRLNFVTGSNVGSRTYLMADNTHYQIFDLLNQEFTFTVDVSHLPCGLNGALYFVTMDADGGVSKYPNNKAGAQYGVGYCDSQCPRDLKFIAGQANVEGWTPSSNNANTGVGNHGACCAELDIWEANSISEALTPHPCDTPGLSVCTTDACGGTYSSDRYAGTCDPDGCDFNPYRLGVTDFYGSGKTVDTTKPITVVTQFVTDDGTSTGTLSEIRRYYVQNGVVIPQPSSKISGVSGNVINSDFCDAEISTFGETASFSKHGGLAKMGAGMEAGMVLVMSLWDDYSVNMLWLDSTYPTNATGTPGAARGSCPTTSGDPKTVESQSGSSYVTFSDIRVGPFNSTFSGGSSTGGSSTTTASGTTTTKASSTSTSSTSTGTGVAAHWGQCGGQGWTGPTTCASGTTCTVVNPYYSQCL | 13.3% | 0.75X | 
SEQ ID 101, 102: BD29555 CBH I entry site variant: Y31L, T32W, F120-VTGSNVG-S128 → F120-VQQGPYSKNVG-S132 (protein) MSALNSFNMYKSALILGSLLATAGAQQIGTLWAETHPSLSWSTCKSGGSCTTNSGAITLDANWRWVHGVNTSTNCYTGNTWNTAICDTDASCAQDCALDGADYSGTYGITTSGNSLRLNFVQQGPYSKNVGSRTYLMADNTHYQIFDLLNQEFTFTVDVSHLPCGLNGALYFVTMDADGGVSKYPNNKAGAQYGVGYCDSQCPRDLKFIAGQANVEGWTPSSNNANTGLGNHGACCAELDIWEANSISEALTPHPCDTPGLSVCTTDACGGTYSSDRYAGTCDPDGCDFNPYRLGVTDFYGSGKTVDTTKPITVVTQFVTDDGTSTGTLSEIRRYYVQNGVVIPQPSSKISGVSGNVINSDFCDAEISTFGETASFSKHGGLAKMGAGMEAGMVLVMSLWDDYSVNMLWLDSTYPTNATGTPGAARGSCPTTSGDPKTVESQSGSSYVTFSDIRVGPFNSTFSGGSSTGGSSTTTASGTTTTKASSTSTSSTSTGTGVAAHWGQCGGQGWTGPTTCASGTTCTVVNPYYSQCL |  |  | 10.9%
SEQ ID 103, 104: BD29555 CBH I entry site variant: T32Q, F120-VTGSNVG-S128 → F120-VTKGSFSSNIG-S132 (protein) MSALNSFNMYKSALILGSLLATAGAQQIGTYQAETHPSLSWSTCKSGGSCTTNSGAITLDANWRWVHGVNTSTNCYTGNTWNTAICDTDASCAQDCALDGADYSGTYGITTSGNSLRLNFVTKGSFSSNIGSRTYLMADNTHYQIFDLLNQEFTFTVDVSHLPCGLNGALYFVTMDADGGVSKYPNNKAGAQYGVGYCDSQCPRDLKFIAGQANVEGWTPSSNNANTGLGNHGACCAELDIWEANSISEALTPHPCDTPGLSVCTTDACGGTYSSDRYAGTCDPDGCDFNPYRLGVTDFYGSGKTVDTTKPITVVTQFVTDDGTSTGTLSEIRRYYVQNGVVIPQPSSKISGVSGNVINSDFCDAEISTFGETASFSKHGGLAKMGAGMEAGMVLVMSLWDDYSVNMLWLDSTYPTNATGTPGAARGSCPTTSGDPKTVESQSGSSYVTFSDIRVGPFNSTFSGGSSTGGSSTTTASGTTTTKASSTSTSSTSTGTGVAAHWGQCGGQGWTGPTTCASGTTCTVVNPYYSQCL |  |  | 15.9%
